From the supplement of paper PMC10338343
± gives the standard deviation. In all, about 6,600 sequences were measured (“pre-steady-state target cleavage rate”: median about 0.07, highest 2% from about 0.72 on). This is a selection; strong and weak results do not stand in their true shares.

test system: MIWI (PIWIL1) piRISC loaded with Kctd7 piRNA (30 nt); assay: pre-steady-state target cleavage rate (min^-1); MIWI and MILI are mouse PIWI proteins and EfPiwi is from a freshwater sponge; tags in brackets are library labels; higher = faster piRNA-guided slicing of the target; settings: guide: Kctd7 piRNA 5'p-UGUUAAUCUCUCAGAGAAGGUGACAGUGAU; auxiliary factor: 500 nM mouse GTSF1
Outline: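 Cleave-'n-Seq: a transcribed, DNA-blocked target RNA library (0.1 nM) was mixed with 1 nM active affinity-purified piRISC carrying one synthetic guide, with or without 500 nM GTSF1 partner protein, in HEPES–potassium acetate buffer at 33 °C for 0–8 or 0–960 min. Uncleaved targets were sequenced and normalised to depth and to weakly complementary targets. Three trials were pooled, and k3 was capped at 0.0001 min^-1. The pre-steady-state cleavage rate came from a burst-and-steady-state fit.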

Sequence	pre-steady-state target cleavage rate
UAGUGACUCGACCUUCUCUGAGAGAUUAACA	0.108 ± 0.013
UACAGUGUCAGCUUCUCUGAGAGAUUAACA	0.622 ± 0.028
UACACUGUCACCUUCUCUGGAGAUUAACA	0.188 ± 0.016
UACACUGCUCACCUUCUCUGAGAGAUUAACA	0.623 ± 0.035
UACACUGUGACCUUCUCUGAGAGAUUUUGA	0.055 ± 0.013
UACACUGUCACCUUCUCUGAGAGAUUCACA	0.509 ± 0.12
UAGUGAGUCACCUUGACUGAGAGAUUAACA	0.0328 ± 0.006
UAGUCUGUCUACCUUCUCUGAGAGAUUAACA	0.166 ± 0.019
AUCACUGUCACCUUGACUGAGAGAUUAUGA	0.151 ± 0.049
UAGUGAGUCACCUUCUCUGAGUGAUAAACA	0.0237 ± 0.0075
UUCACUGUCACGUUCUCUGAGAGAUUAUGA	0.0625 ± 0.016
UUCACUGUGUGCUUCUCUGAGAGAUUAAGA	0.00941 ± 0.0027
AACACUGUCACCUUCUCUCAGAGAUUAACA	0.15 ± 0.016
UAGUGACACACCUUCUCUGAGAGAUAACA	0.0111 ± 0.0033
AUCACUGUCUCCUUCACUGAGAGAUUAACA	0.426 ± 0.029
UACACUGUCACCUUCUCUGAGAGAUUAAGA	0.192 ± 0.032
UAGACUGUCACCAACUCUGAGAGAUUAAGA	0.0368 ± 0.01
UAGUGACAGACCUUCUCUGAGAGUUAAACA	0.017 ± 0.0049
UACACUGUCACCUUCUCUGAGAGCUUAACA	0.21 ± 0.024
AUCACUGUCACCUUCUCUGAGAGAUUACACA	0.36 ± 0.051
AUCACUGUCACCUUCUCUGAUGAGAUUAACA	0.0224 ± 0.0086
UUCACUGUCAGCUUCUCUCAGAGAUUAACA	0.0874 ± 0.0057
UAGUCUGUCACCUUCUCUGAGAGAUUAUGA	0.0495 ± 0.011
UAGUGUGUCACCUUCUCGAGAGAUUAACA	0.07 ± 0.011

Sequence	pre-steady-state target cleavage rate
UAGUGAGUCAGCUUCUCUGUGAGAUUAACA	0.258 ± 0.013
UUCACUGUCACCUUCUGUGAGAGAUAAACA	0.165 ± 0.021
UUGACUGUCACCUUCUCUGAGUGAUUAACA	0.0277 ± 0.0037
UAGUGACUCACCUUCUCUUAGAGAUUAACA	0.161 ± 0.014
UUCACUGUGACCUUCACUGAGAGAUUAACA	0.386 ± 0.031
UAGUCUGUCUCCUUCUCUCAGAGAUUAACA	0.0845 ± 0.0069
AUCACUGUCACCUUGUCUGAGACAUUAACA	0.202 ± 0.027
UACACUGUCACCUUCUCUGAGAGAGUUAACA	0.462 ± 0.075
UAGUGACAGUGGUUCUCUGAGAGCAUUAACA	< 0.0001
UAGUGACUCAGCUUCUCUGAGAGAAUAACA	0.0124 ± 0.0027
UAGUGUGUCACCUUCUCUGAGAGAAUUAACA	0.35 ± 0.057
UAGUGAGUCACCUUCUCUGACUCAUUAACA	0.00443 ± 0.0039
UAGUGACUCAUCCUUCUCUGAGAGAUUAACA	0.123 ± 0.011
AUCACUGUCACCUUCUCUGAGUCAUUAUGA	0.00326 ± 0.0025
UAGUGACAGUCCUUCUCUGAGAGACUAACA	0.00948 ± 0.0027
UAGUGAGUCACCAUCUCUGAGAGAUUAUGA	0.0408 ± 0.014
UAGUGACUCACGUUCUGUGAGAGAUUAACA	0.191 ± 0.027
UAGUGACACACCUACUCUCAGAGAUUAACA	0.00712 ± 0.0036
UAGUGACACACCUUCCCUGAGAGAUUAACA	0.256 ± 0.056
AUCACUGAGACCUUCUCUGAGAGAUUAAGA	0.17 ± 0.033
UAGUGUGUCUCCUUCUCUGUGAGAUUAACA	0.0767 ± 0.0088
UAGUGAGUCACCUUCUCUGAGAGAAUUAACA	0.308 ± 0.044
UAGUCUGUCACCUUCCCUGAGAGAUUAACA	0.298 ± 0.038
UACACUGUCAUCCUUCUCUGAGAGAUUAACA	0.271 ± 0.026

Sequence	pre-steady-state target cleavage rate
UUCACUGUCUCCUACUCUGAGAGAUUAACA	0.614 ± 0.036
UAGUGACUCUCCUUCUCUGACAGAUUAACA	0.03 ± 0.0045
UAGUGACAGUGGAAGUCUGACAGUUUAACA	< 0.0001
UAGUCUGUCACCUUGAGUGAGAGAUUAACA	0.00414 ± 0.0035
UUCACUGUCACCUUGUCUGAGAGAUUAUCA	0.467 ± 0.079
AUCACUGUGACCUUCACUGAGAGAUUAACA	0.277 ± 0.016
UAGUGAGUCACCUUCUCAGAGAGAAUAACA	0.0547 ± 0.011
UAGACUGUCACCUUCUCUGACUCUAAUUGA [g11:g27:cont:t1A]	< 0.0001
UACACUGACACCUUCUCUGAGAGAAUAACA	0.338 ± 0.089
AUCACUGUCACCUUCUCAGAGAGAUAAACA	0.106 ± 0.011
UAGUGACAGUGGAAGACUGAGAGUUUAUCA	< 0.0001
UACACUGACACCUUCUGUGAGAGAUUAACA	0.338 ± 0.028
UUCACUGUCACCUUCUCUGGGAGAUUAACA	0.492 ± 0.021
UAGUGAGUCACCUUCUCUGAGACUAUAACA	0.00394 ± 0.0036
UUCACUGUCACCUUCUCUGAGAGAGUUAACA	0.421 ± 0.055
UAGUCUGUCACGUACUCUGAGAGAUUAACA	0.227 ± 0.027
UACACUGUCUGCUUCUCUGAGAGAUUAACA	0.708 ± 0.043
UAGUGACAGACGUUCUCUGAGAGAUUAUCA	0.00619 ± 0.0026
UAGUGAGUCACCUUCUUUGAGAGAUUAACA	0.534 ± 0.04
UAGUCAGUCACCUACUCUGAGAGAUUAACA	0.698 ± 0.035
UAGUCUGUCACCUUCUCUCUGAGAUUAACA	0.0156 ± 0.0033
UAGACUGUCACCUUCUCUGAGAGAUUGACA	0.506 ± 0.047
UAGUGUGUCACCUUCUCUGAGAGUUUUUGA	0.12 ± 0.033
UAGUGAGUCACCUUCUCUGAGAGUUAACA	0.194 ± 0.053

Sequence	pre-steady-state target cleavage rate
UAGUGACAGACCAUCUCUGAGAGAUUUACA	0.0073 ± 0.0026
AACACUGUCACCUUCUCUGAGAGUUUAACA	0.518 ± 0.077
UAGUGAGUCAACUUCUCUGAGAGAUUAACA	0.697 ± 0.041
UAGUGACUCAGCUUCUCUGAGACAUUAACA	0.0131 ± 0.0029
UAGUCUGUGACCUUCACUGAGAGAUUAACA	0.343 ± 0.021
UAGUGACAGACCUUCUCUGAGAGCAUUAACA	0.0617 ± 0.0085
UACACUGCACCUUCUCUGAGAGAUUAACA	0.569 ± 0.027
UAGUGUGUCACACUUCUCUGAGAGAUUAACA	0.334 ± 0.036
UAGUCUGUCACCUUCUCAGAGAGAUUAUGA	0.0185 ± 0.0083
UAGUCUGUCACCUUGUGUGAGAGAUUAACA	0.0528 ± 0.0048
UAGUGACAGUGGAAGACUCAGUGAUUAACA	< 0.0001
UAGUGAGUCACCAACUCUGAGAGAUUAACA	0.229 ± 0.029
UACACUGUCACCUUCUCUGAGAGAAUUAACA	0.442 ± 0.081
UAGUGUGUCAGCUACUCUGAGAGAUUAACA	0.389 ± 0.026
AUCACUGUCAGGUUCUCUGAGAGAUUAAGA	0.0697 ± 0.013
UAGUGUGUCACCUUGUCUGAGAGAUUAACA	0.256 ± 0.034
UAGUCUGUCACCUUCUCUGUGUGAUUAACA	0.014 ± 0.0051
AUCACUGUCACCUUCUCUGAGAAGAUUAACA	0.096 ± 0.022
UAGUGUGUCUCCUUCUCUGAGAGUUUAACA	0.142 ± 0.018
UAGUGUGUCACGUUCUCUGAGAGAUUUUGA	0.00531 ± 0.0038
UAGACUGUCACCUUCUCUGACUGAUUAUGA	< 0.0001
UAGUGAGUCACCUUCUCUGAGAGUUUAUGA	0.309 ± 0.069
UAGUCUGUCACCUUCUCUGAGAGUUAUUGA	0.123 ± 0.039
UAGACAGUCACCUUCUGUGAGAGAUUAACA	0.514 ± 0.027

Sequence	pre-steady-state target cleavage rate
AUCACUGUCACCUUCUCUUAGAGAUUAACA	0.415 ± 0.021
UAGUGAGUCACCAUCUCUGACAGAUUAACA	0.192 ± 0.023
UAGUGACACACCUUCUCUGACACAUUAACA	0.00429 ± 0.0031
UACACUGUGACCUUCUCUGAGAGAUUAAGA	0.128 ± 0.022
AACAGUGUCACCUUCUCUGAGAGAUUAACA	0.705 ± 0.033
UAGUGUGUCACCUUCUCUGAGAGAUUAAAA	0.177 ± 0.028
AUCACUGUCACCUUCUCUGGGAGAUUAACA	0.532 ± 0.022
UAGUCUGACACCUUCUCUGACAGAUUAACA	0.131 ± 0.019
UAGUCACUCACCUUCUCUGAGAGAUUAAGA	0.0529 ± 0.011
AUCACUGUCACCUUCUCUGACAGAUUAAGA	0.01 ± 0.0043
UAGUCUGUGACCAUCUCUGAGAGAUUAACA	0.399 ± 0.024
UACACUGUCACCUUCUCAGACAGAUUAACA	0.0952 ± 0.013
UAGUCUGUCAGCUUCUCUCAGAGAUUAACA	0.0853 ± 0.0075
UAGACUGAGACCUUCUCUGAGAGAUUAACA	0.461 ± 0.023
UAGUGUGUCACCUUCUCUGUGAGAUUAAGA	0.064 ± 0.011
UAGUCUCUCACCUUCUCUCAGAGAUUAACA	0.0673 ± 0.0062
AUCACUGUCACUUCUCUGAGAGAUUAACA	0.628 ± 0.044
AUCACUGUCACCAUCUCUGAGAGAUAAACA	0.31 ± 0.03
UAGUGACACACCUUCUCUGAGAGAAUAUCA	0.0155 ± 0.0077
UAGUCUUCACCUUCUCUGAGAGAUUAACA	0.605 ± 0.027
UACACUGUCACCUUCUCUGAGAGAUAAACA	0.331 ± 0.036
UAGUCUGUCACCUUCUCUCAGACAUUAACA	0.0585 ± 0.0064
UUCACUGUCAGGUUCUCUGAGAGAUUAAGA	0.0711 ± 0.014
UUCACUGUCACCUUGUCUGAGAGAUAUUGA	0.351 ± 0.097

Sequence	pre-steady-state target cleavage rate
UAGUCUGUCACCUUCUCUGAGUGUUUAACA	0.0499 ± 0.008
AUCACUGUCACCAUGUCUGAGAGAUUAACA	0.253 ± 0.021
UAGUGACAGUGCUCCUCUGAGAGAUUAACA	0.00949 ± 0.0021
UAGACUGUCACCUACUCUCAGAGAUUAACA	0.0399 ± 0.0041
UAGACUGUCACCUUCUCUGAGAGAUGUAACA	0.419 ± 0.047
UAGUGACAGACCUUCUUUGAGAGAUUAACA	0.0159 ± 0.0058
UAGUGACUCACCUUGUCUGACAGAUUAACA	0.153 ± 0.017
UAGUCUGUCACCUUCUCCGAGAGAUUAACA	0.365 ± 0.057
UAGUGUGUCACCUUCAUCUGAGAGAUUAACA	0.0703 ± 0.015
UAGUGUCAGACCUUCUCUGAGAGAUUAACA	0.195 ± 0.02
UAGUGACACACCUCUCUGAGAGAUUAACA	0.0282 ± 0.0063
UAGUGUGUCACCUUCUCUAGAGAGAUUAACA	0.015 ± 0.0071
UAGACUCUCACCUUCUCAGAGAGAUUAACA	0.25 ± 0.019
AUCACUGUCACCUUCUCUGACAGAUUAUCA	0.0262 ± 0.0092
AUGUGUGUCACCUUCUCUGAGAGAUUAUGA	0.118 ± 0.022
AUCACUGUGACCUUCUCUGAGAGAUUUACA	0.361 ± 0.043
UAGUCUGUGACCUUCUCUGAGUGAUUAACA	0.0247 ± 0.0042
UAGUGACAGUCCUCUCUCUGAGAGAUUAACA	0.16 ± 0.018
UAGUGACAGUGGAAGACUGAGAGAGUUAACA	< 0.0001
UAGUGACACACCUUCUCUAAGAGAUUAACA	0.211 ± 0.014
AUCACUGUCACCUUCUCUGACAGAUUAUGA	0.0118 ± 0.0057
UACACUGUCACCUUCAUCUGAGAGAUUAACA	0.205 ± 0.046
AUCUGUGUCACCUUCUCUGAGAGAUUAACA	0.417 ± 0.025
UAGUGACACACCAUCUCUGAGAGAUUAUCA	0.0889 ± 0.013
